According to the supplement of paper PMC4967469:
The IC50 comes from the fitted curve, where viability falls to half of the control; a fit beyond the top or the lowest dose is shown as a bound at that dose. AUC sums up the same curve from the lowest dose to the 256-fold higher top dose; values near 1 show little effect. Any top dose called inferred comes from the curve model; the source does not state it. For some assays here: An entry number marks a drug with two screens in the source, which often give different values.

Tests used:
Test in all cases: Viability of human cancer cell lines after 72 h of drug (GDSC screen)
[1] = compound: CCNc1cc(NC2CCC(O)CC2)nc(Nc2ccc3c(ccn3Cc3ccccc3)c2)n1 [CGP-082996 (CINK4)]; conditions: top dose 5.12 µM; top dose inferred
Method: (§1)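 Human cancer cell lines in 384-well plates, medium with 10% serum, drug for 72 h over a 256-fold dose range (nine 2-fold or five 4-fold steps up to the top dose). Adherent lines were fixed and stained with the nucleic acid dye Syto60, suspension lines read with resazurin; signal relative to control wells, capped at 0 and 100%. One two-parameter sigmoid per drug and line, fitted in a mixed model over all curves with the slope shared within a line.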

[2] = compound: O=C(c1cc(Cc2n[nH]c(=O)c3ccccc23)ccc1F)N1CCN(C(=O)C2CC2)CC1 [Olaparib]
Method: as §1

[3] = compound: Cc1cc(N2CCOCC2)cc2[nH]c(-c3c(NC[C@@H](O)c4cccc(Cl)c4)cc[nH]c3=O)nc12 [BMS-536924]
Method: as §1

[4] = compound: NC(=O)c1ccc(N(C(N)=O)c2c(F)cccc2F)nc1-c1ccc(F)cc1F [VX-702]; conditions: top dose 2 µM; top dose inferred
Method: as §1

[5] = compound: O=C1NC(=O)c2c1c(-c1ccccc1Cl)cc1[nH]c3ccc(O)cc3c21 [Wee1 inhibitor 681640]; conditions: top dose 2 µM; top dose inferred
Method: as §1

[6] = compound: Cc1cccc(-c2[nH]c(C(C)(C)C)nc2-c2ccc3nccnc3c2)n1 [SB-525334]; conditions: top dose 20 µM; top dose inferred
Method: as §1

[7] = compound: COc1cc(N2CCN(C)CC2)ccc1Nc1ncc2c(n1)N(C)c1ccccc1C(=O)N2C [XMD8-85]; conditions: top dose 8 µM; top dose inferred
Method: as §1

[8] = compound: COc1cc(-c2nn([C@H]3CC[C@H](N4CCN(C(C)=O)CC4)CC3)c3ncnc(N)c23)ccc1NC(=O)c1cc2ccccc2n1C [A-770041]; conditions: top dose 5.12 µM; top dose inferred
Method: as §1

[9] = compound: CC(C)=CC[C@@H](O)C1=CC(=O)c2c(O)ccc(O)c2C1=O [Shikonin]; conditions: top dose 16 µM; top dose inferred
Method: as §1

[10] = compound: Cc1ccc(-n2nc(C(C)(C)C)cc2NC(=O)Nc2ccc(OCCN3CCOCC3)c3ccccc23)cc1 [BIRB 0796]; conditions: top dose 10 µM; top dose inferred
Method: as §1

[11] = top dose 5 µM, screen: GDSC drug entry 1017, top dose inferred
[12] = top dose 10 µM, screen: GDSC drug entry 1495
[13] = top dose 4 µM, screen: GDSC drug entry 1091, top dose inferred
[14] = top dose 5.12 µM, screen: GDSC drug entry 62

Cell Line	AUC [1]	IC50 [1] [µM]	AUC [2, 11]	IC50 [2, 11] [µM]	AUC [2, 12]	IC50 [2, 12] [µM]	AUC [3, 13]	IC50 [3, 13] [µM]	AUC [3, 14]	IC50 [3, 14] [µM]	AUC [4]	IC50 [4] [µM]	AUC [5]	IC50 [5] [µM]	AUC [6]	IC50 [6] [µM]	AUC [7]	IC50 [7] [µM]	AUC [8]	IC50 [8] [µM]	AUC [9]	IC50 [9] [µM]	AUC [10]	IC50 [10] [µM]
JM1 (B-cell lymphoma, suspension)	0.865	3.48	0.96	> 5	0.916	> 10	0.954	> 4	0.928	> 5.12	0.987	> 2	0.964	> 2	0.872	14.6	0.869	5.69	0.956	> 5.12	0.198	0.151	0.979	> 10
JVM-2 (lymphoid neoplasm, suspension)	0.977	> 5.12	0.883	> 5	0.908	> 10	0.939	> 4	0.888	> 5.12	0.949	> 2	0.914	> 2	0.959	> 20	0.973	> 8	0.901	> 5.12	0.702	4.27	0.975	> 10
JVM-3 (lymphoid neoplasm, suspension)	0.987	> 5.12	0.87	4.79	0.899	> 10	0.894	> 4	0.987	> 5.12	0.889	> 2	0.914	> 2	0.945	> 20	0.987	> 8	0.987	> 5.12	0.886	> 16	0.944	> 10
JiyoyeP-2003 (Burkitt lymphoma, suspension)	0.958	> 5.12	0.984	> 5	0.988	> 10	0.981	> 4	0.871	3.86	0.981	> 2	0.991	> 2	0.937	> 20	0.885	6.86	0.822	2.52	0.559	1.41	0.99	> 10
KARPAS-45 (lymphoblastic leukaemia, suspension)	0.858	3.14	0.982	> 5	0.972	> 10	0.979	> 4	0.837	2.65	0.982	> 2	0.962	> 2	0.937	> 20	0.832	–	0.826	2.43	0.763	4.89	0.991	> 10
KARPAS-299 (anaplastic large cell lymphoma, suspension)	0.937	> 5.12	0.989	> 5	0.948	> 10	0.872	2.76	0.826	2.42	0.983	> 2	0.957	> 2	0.984	> 20	0.893	6.73	0.889	4.14	0.484	0.909	0.988	> 10
KARPAS-422 (B-cell lymphoma, suspension)	0.829	3.13	0.986	> 5	0.978	> 10	0.966	> 4	0.98	> 5.12	0.975	> 2	0.972	> 2	0.976	> 20	0.886	> 8	0.932	> 5.12	0.666	2.87	0.982	> 10
KE-37 (lymphoblastic leukaemia, suspension)	0.981	> 5.12	0.99	> 5	0.986	> 10	0.988	> 4	0.994	> 5.12	0.993	> 2	0.914	1.67	0.969	> 20	0.928	7.78	0.953	> 5.12	0.355	0.441	0.994	> 10
KM-H2 (Hodgkin lymphoma, suspension)	0.96	> 5.12	0.99	> 5	0.977	> 10	0.991	> 4	0.933	> 5.12	0.987	> 2	0.977	> 2	0.986	> 20	0.991	> 8	0.979	> 5.12	0.542	1.28	0.993	> 10
KMOE-2 (acute myeloid leukaemia, suspension)	0.983	> 5.12	0.984	> 5	0.981	> 10	0.888	3.65	0.936	> 5.12	0.983	> 2	0.977	> 2	0.96	> 20	0.949	> 8	0.988	> 5.12	0.446	0.723	0.973	> 10
KNS-81-FD (glioma, adherent)	0.966	> 5.12	0.976	> 5	0.921	> 10	0.958	> 4	0.957	> 5.12	0.943	> 2	0.899	> 2	0.772	10.6	0.969	> 8	0.979	> 5.12	0.548	1.42	0.913	> 10
